Structures are written as SMILES. The list shows a part of the results. Repeats are few or missing, and single values can be far off.

For the experiment, the system named is Candida albicans DPL-15. In words: growth (OD600) after compound treatment (apparently relative to screen median) (relative growth (fraction; screen median 1.02)); DPL-15 is a caspofungin-resistant clinical isolate; higher = more fungal growth (less antifungal activity). Particulars: 25 µM; RPMI 1640; 48 h; 30 °C.
On to `FC(F)(F)Oc1ccc2[nH]c3c(c2c1)CCCC3`, for which the growth amounted to 1.09. The same measure for `COc1ccc(C2NC(=S)N(C(C)C)C(C)=C2C(C)=O)cc1` (configuration not stated): 1.02; for `COc1cccc(C#C[C@@H]2C=C[C@@H](OC(C)=O)[C@@H](COC(C)=O)O2)c1`: 0.948; for `CO[C@@H]1[C@H](O)CC[C@]2(O)CN(c3ccc(NC(C)=O)cc3)[C@@H](CC=C(C)C)[C@](C)(O)[C@@H]12`: 0.911. The same measure for `COC(=O)C1=C(C)[C@]2(C)C[C@H]3[C@@]4(C)CC[C@H](O)C(C)(C)[C@@H]4CC[C@@]3(C)OC2=C(C)C1=O`: 1.01; for `COc1cc(CC=C(C)C)c2c(=O)c3c(F)cccc3oc2c1O`: 0.935; for `COc1ccc(N2C(=O)C3=C(C(C)=NCCN3)C2c2ccccc2)cc1` (configuration not stated): 0.966. The same measure for `COc1ccc(-n2cc3c(n2)-c2cccc(c2)C(=O)N2C[C@H](O)C[C@H]2C(=O)NCC(C)(C)C3)cc1`: 1.2; for `CC(C)c1c2c(nn1-c1ccc(OC(F)(F)F)cc1)C(=O)NC2c1ccccc1` (configuration not stated): 0.938; for `CC(=O)C1=C(C)N(Cc2cccc(C(F)(F)F)c2)C(=S)NC1c1cccc(Cl)c1` (configuration not stated): 1.02. For the compound `COC(=O)C1=C(C)N(Cc2ccccc2)C(NCC(C)C)=NC1c1cccc(F)c1` (configuration not stated), the growth was 1.01. To `CS(=O)(=O)Oc1c(CC23CCCCC2=Nc2ccc(F)cc23)occc1=O` (configuration not stated) belongs 1.32. For `COC(=O)c1cc2c(c3c4cc(F)ccc4n(S(=O)(=O)c4ccc(OC)cc4)c13)C(=O)N(Cc1cccc(F)c1)C2`, the growth stood at 0.952. Turning to `CC(C)C1=NCCNC2=C1C(c1ccc(Br)cc1)N(c1ccccc1)C2=O` (configuration not stated), the growth was 1.03. As for `CO[C@H]1CC[C@H](N2C(=O)c3[nH]nc(CC(C)C)c3C2c2ccc(F)cc2)CC1` (some centres not stated), the growth stood at 0.961.

`CC(C)CC1=NCCNC2=C1C(c1ccccc1)N(Cc1ccccc1)C2=O` (configuration not stated): the growth was found to be 1.03. To `COC(=O)C1=C(C)N(Cc2ccc(Br)cc2)C(=S)NC1c1cccc(OC)c1` (configuration not stated) belongs 0.885; to `CC1=C[C@H]2c3c(c(O)c(O)c4oc5c(C)cccc5c(=O)c34)[C@H](c3cc(O)c(O)c4oc5c(C)cccc5c(=O)c34)[C@H]2C(C)(C)C1`, 0.358; to `CCOc1ccc(N2C(=O)c3[nH]nc(CC(C)C)c3C2c2ccc(F)cc2)cc1` (configuration not stated), 1.02. In the case of `COc1ccc(Cn2nc(C3CCCC3)cc2Nc2cc(O)cc(O)c2C(=O)N2Cc3cn[nH]c3C2)cc1`, the growth came to 0.981.

Consider `O=C1C2=C(O)CC[C@@H](O)[C@]2(C(=O)O)Oc2cccc(O)c21`, for which the growth was 1.9.

As to `Cc1noc(C)c1S(=O)(=O)N1CCCc2nc(-c3ccc(F)cc3)ccc21`, the growth turned out to be 0.863.

With `COc1cc(O)c2c(=O)c3c([C@H]4c5c(OC)c(O)c6oc7cc(OC)cc(O)c7c(=O)c6c5[C@@H]5C=C(C)CC(C)(C)[C@H]45)cc(OC)c(O)c3oc2c1`, the growth worked out at 0.824.

For the compound `Cn1nc(-c2ccc(C(C)(C)C)cc2)cc1N`, the growth came out at 1.14. To `CC1=C(C)C[C@H]2[C@@H](C1)C(C(C)C)=CC(=O)[C@@]2(C)O` belongs 0.853. To `COc1ccc(N2[C@@H](c3cn(C)c4ccccc34)[C@@]3(O)CC[C@@H](O)[C@@H](OC)[C@@H]3[C@@]2(C)[C@H](O)CC=C(C)C)cc1` belongs 0.94. To `C=CCN1C(=O)c2[nH]nc(C)c2C1c1cccc(C(F)(F)F)c1` (configuration not stated) belongs 0.832; to `COC(=O)[C@]1(CC(C)C)NC=C(C(=O)c2ccccc2)[C@@H]1c1cccc(C(F)(F)F)c1`, 0.965.

On to `CC1(C)CNC(=O)CC2(CCN(C(=O)OC(C)(C)C)CC2)CNC(=O)c2cccc(c2)-c2cc(n[nH]2)C1`, for which the growth amounted to 1.2.

Regarding `COC(=O)[C@@H]1[C@@H](c2ccccc2)[C@]2(c3ccc(OC)cc3)Oc3cc(OC)cc(OC)c3[C@@]23NC(Cc2ccccc2)=N[C@@]13O`, the growth was 1.03. The same measure for `CC(C)c1nn(C)c2c1C(c1cccc(C(F)(F)F)c1)NC2=O` (configuration not stated): 1.19.

Consider `CC/C=C\CCC(OC(=O)c1ccc(Br)cc1)C1=CCCCC1=O` (configuration not stated), for which the growth came to 1.18. The same measure for `COc1ccc(CO/N=C2/CCCC/C=C\CCCCOC(=O)c3c(O)cc(O)cc3C2)cc1`: 1.12. The same measure for `CC(C)Cc1c2c(nn1C)C(=O)N(Cc1ccccc1)C2c1ccc(F)cc1` (configuration not stated): 0.986; for `CCCC1=Nc2ccccc2C1(CC)Cc1occc(=O)c1O` (configuration not stated): 1.03. The same measure for `CC(C)c1c2c(nn1C)C(=O)NC2c1ccc(Br)cc1` (configuration not stated): 1.09; for `C=CCOc1c(-c2ccc(O)cc2O)oc2cc(O)cc(OCC=C)c2c1=O`: 1.12; for `Nc1cccc(F)c1C(=O)OCC(=O)c1ccc(N2CCOCC2)cc1`: 0.945.

On to `CCOC(=O)c1c(S(=O)(=O)Nc2ccccc2OC)c(C)n(C)c1C`, for which the growth was 1.1. To `C#CCC(C)(C)CNC(=O)CC1(CNC(=O)c2cccc(/C=N/NS(=O)(=O)c3ccc(C)cc3)c2)CCN(C(=O)OC(C)(C)C)CC1` belongs 1.17; to `COC(=O)c1ccc(N2C(=O)c3[nH]nc(CC(C)C)c3C2c2cccc(C(F)(F)F)c2)cc1` (configuration not stated), 1.01. The same measure for `CNC(=O)[C@@H]1C[C@@]2(c3cn(C(=O)OCc4ccccc4)c4ccccc34)c3ccccc3N(C(=O)OCc3ccccc3)[C@H]2N1C(=O)OC(C)(C)C`: 1.14; for `COC(=O)C1=C(C)N(Cc2ccc(Br)cc2)C(=S)NC1c1cccc(Br)c1` (configuration not stated): 0.924; for `CC(C)CCOS(=O)(=O)NC(C)(C)C`: 0.939. The same measure for `C[C@H]1C[C@H]2[C@H](Cc3ccccc3)C(=O)N[C@@H](Cc3ccccc3)C(=O)N2[C@H]1c1cccc(Br)c1`: 0.973. Consider `Cc1ccc2c(c1)[C@]1(Cc3occc(=O)c3OS(C)(=O)=O)CCCCC1=N2`, for which the growth came out at 1.23. The same measure for `COc1cc(OC)c2c(=O)c3cccc(O)c3oc2c1`: 0.791.

Source of the values: the supplement of paper PMC10986608.
